Tested on: male wistar rats
Test: Toxicity test, oral administration for four days
Conditions: 100 mg/kg/day orally for four days

## CCNC(=O)COc1cc2c(=O)c(Cc3cccnc3)cn3c4cc(Br)ccc4c(c1)c23 [Example 37, 9-bromo-2-(N-ethylcarbamoylmethyloxy)-5-(3-pyridylmethyl)-4H-pyrido[3,2,1-jk]carbazol-4-one]
  abnormal change in body weight and general symptoms: no abnormal change

## O=c1c(Cc2cccnc2)cn2c3cc(Br)ccc3c3cc(OCCCO)cc1c32 [Example 38, 9-bromo-2-(3-hydroxypropyloxy)-5-(3-pyridylmethyl)-4H-pyrido[3,2,1-jk]carbazol-4-one]
Until the next morning of the completion of the administration
  dead case: no dead case

— patent EP0992240A1, “THERAPEUTIC AGENT FOR ERECTION FAILURE” (MOCHIDA PHARMACEUTICAL CO., LTD., priority 1997, dated 1998)
